# Data taken from PubChem BioAssay (Tox21).
# “And” between values parts separate entries of the source, which are not always exact repeats. Identical values can stand only once. Inconclusive means that the source gave no clear call. Such entries were picked first, then a sample of the others. Potencies of inconclusive entries are doubtful fits and often do not repeat. More than one record can exist for a structure, and the calls need not agree. The source made the active and inactive calls. Unless noted, calls come from the whole dose curve; as a rule, active = well fitted curve in the direction sought with a large enough effect in the repeat runs; inconclusive = weak or mixed curves; inactive = no such curve, though single readings can be large; an effect the other way counts as inactive or inconclusive.
# Columns and labels:
# [1] = qHTS assay for identifying genotoxic compounds that show differential cytotoxicity against isogenic chicken DT40 cell lines with known DNA damage response pathways - Rad54/Ku70 mutant cell line (AID 743015); conditions: DT40 Rad54/Ku70 mutant viability, CellTiter-Glo, 40 h; activity change, negative = cytotoxicity: at 66.8 µM (top of the series); note: nearly all actives have a fitted effect of over 60% in size
# [2] = qHTS assay to identify small molecule antagonists of the thyroid receptor (TR) signaling pathway - cell viability counter screen (AID 743064); conditions: GH3.TRE-Luc viability, CellTiter-Fluor, 24 h; note: nearly all actives have a fitted effect of over 50% in size; for activity change, negative = cytotoxic: % is set by controls: 0 for no effect and ±100 for the full control effect
# Outline: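 Rat GH3 pituitary tumor cells stably expressing two TR response elements driving luciferase were plated, rested 4 h, then dosed with library compounds and T3 (1 nM final). After 23.5 h at 37 °C, CellTiter-Fluor was added for 30 min and fluorescence recorded.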
# [3] = biological target: Androgen receptor (Homo sapiens) (UniProt P10275); assay: qHTS assay to identify small molecule antagonists of the androgen receptor (AR) signaling pathway (AID 743035; active = well fitted inhibition curve with a large enough effect in the signal ratio in the repeat runs, not every such curve was filed as active; inconclusive = weak or mixed curves, or effect the other way; inactive = no such curve, though single readings can be large or run the other way; the % refers to the signal ratio; for activity change, negative = inhibition: % is set by controls: 0 for no effect and ±100 for the full control effect); conditions: HEK293 AR-UAS-bla, R1881-stimulated, beta-lactamase FRET, 16 h; activity change, negative = inhibition: at 58.5 µM (top of the series) unless noted
# Outline: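 HEK293 cells stably carrying UAS-beta-lactamase reporter, 2,000/well, given compounds plus R1881 agonist and incubated 16 h at 37C. LiveBLAzer B/G FRET substrate then added for 2 h at room temperature before fluorescence reading.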
# [4] = biological target: Androgen receptor (Homo sapiens) (UniProt P10275); assay: qHTS assay to identify small molecule agonists of the androgen receptor (AR) signaling pathway using the MDA cell line (AID 743040; note: nearly all actives have a fitted effect of over 20% in size; for activity change: % is set by controls: 0 for no effect and ±100 for the full control effect); conditions: MDA-kb2 AR-luc cells, MMTV luciferase, 16 h; activity change: at 70.3 µM (top of the series), stronger effect = higher value
# Outline: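 After a 5 h incubation at 37C and 0% CO2, MDA-kb2 reporter cells were dosed with compounds in DMSO and kept 16 h under the same conditions. Luciferase activity was then read as luminescence with ONE-Glo.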
# [5] = biological target: Androgen receptor (Homo sapiens) (UniProt P10275); assay: qHTS assay to identify small molecule antagonists of the androgen receptor (AR) signaling pathway using the MDA cell line (AID 743042; note: nearly all actives have a fitted effect of over 55% in size; for activity change, negative = inhibition: % is set by controls: 0 for no effect and ±100 for the full control effect)
# Outline: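 Antagonist mode: compounds plus R1881 agonist added to MDA-kb2 AR-luc cells, incubated 16 h at 37C. Luciferase reporter luminescence quantified, with multiplexed CellTiter-Fluor readout for cell viability.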
# [6] = qHTS assay for identifying genotoxic compounds that show differential cytotoxicity against isogenic chicken DT40 cell lines with known DNA damage response pathways - wild type cell line (AID 743012); conditions: DT40 wild type chicken cells viability, CellTiter-Glo, 40 h; activity change, negative = cytotoxicity: at 68.4 µM (top of the series) unless noted; note: nearly all actives have a fitted effect of over 60% in size
# Outline: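 Wild-type DT40 cells (300/well) exposed to compounds for 40 hours at 37 C/5% CO2. Viability read by CellTiter-Glo luminescence after 30 min at room temperature.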
# [7] = qHTS assay for identifying genotoxic compounds that show differential cytotoxicity against isogenic chicken DT40 cell lines with known DNA damage response pathways - Rev3 mutant cell line (AID 743014); conditions: chicken DT40 Rev3-/- viability, CellTiter-Glo, 40 h; activity, negative = cytotoxicity: at 68.4 µM (top of the series); note: nearly all actives have a fitted effect of over 55% in size
# [8] = qHTS assay to identify small molecule antagonists of the androgen receptor (AR) signaling pathway using the MDA cell line - cell viability counter screen (AID 743041; note: nearly all actives have a fitted effect of over 45% in size); conditions: MDA-kb2 viability, CellTiter-Fluor, 16 h, cells co-treated with R1881 androgen agonist; viability change, negative = cytotoxic: at 70.3 µM (top of the series) unless noted
# Outline: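 R1881-driven MDA-kb2 AR-luc cells, 3,000/well, were dosed with library compounds for 16 h; cell health came from CellTiter-Fluor fluorescence in the reporter wells.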
# [9] = qHTS assay to identify small molecule antagonists of the androgen receptor (AR) signaling pathway - cell viability counter screen (AID 743033; note: nearly all actives have a fitted effect of over 45% in size); conditions: AR-bla HEK293 viability, CellTiter-Glo luminescence, 16 h; activity change, negative = cytotoxicity: at 58.5 µM (top of the series)
# [10] = biological target: Androgen receptor (Homo sapiens) (UniProt P10275); assay: qHTS assay to identify small molecule agonists of the androgen receptor (AR) signaling pathway (AID 743036; active = well fitted activation curve with a large enough effect in the signal ratio in the repeat runs, with a control signal flat, not every such curve was filed as active; inconclusive = weak or mixed curves, or effect the other way; inactive = no such curve, though single readings can be large or run the other way; the % refers to the signal ratio); conditions: HEK293 AR-UAS-bla GripTite, beta-lactamase FRET ratio, 16 h; activation: at 62.4 µM (top of the series) unless noted
# Outline: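 Quantitative HTS of the Tox21 10K library in HEK293 cells bearing a stably integrated UAS-controlled beta-lactamase reporter. Compound exposure lasted 16 h at 37C. Reporter activity was detected by FRET substrate fluorescence after 2 h at room temperature.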
# [11] = activity change, negative = cytotoxic: at 70.3 µM (top of the series) unless noted
# Potency is the fitted concentration of half-maximal effect; tags give direction and shape of the fitted curve or compound fluorescence and quenching.
# Chain of UniProt P10275 (P10275 whole entry, looked up): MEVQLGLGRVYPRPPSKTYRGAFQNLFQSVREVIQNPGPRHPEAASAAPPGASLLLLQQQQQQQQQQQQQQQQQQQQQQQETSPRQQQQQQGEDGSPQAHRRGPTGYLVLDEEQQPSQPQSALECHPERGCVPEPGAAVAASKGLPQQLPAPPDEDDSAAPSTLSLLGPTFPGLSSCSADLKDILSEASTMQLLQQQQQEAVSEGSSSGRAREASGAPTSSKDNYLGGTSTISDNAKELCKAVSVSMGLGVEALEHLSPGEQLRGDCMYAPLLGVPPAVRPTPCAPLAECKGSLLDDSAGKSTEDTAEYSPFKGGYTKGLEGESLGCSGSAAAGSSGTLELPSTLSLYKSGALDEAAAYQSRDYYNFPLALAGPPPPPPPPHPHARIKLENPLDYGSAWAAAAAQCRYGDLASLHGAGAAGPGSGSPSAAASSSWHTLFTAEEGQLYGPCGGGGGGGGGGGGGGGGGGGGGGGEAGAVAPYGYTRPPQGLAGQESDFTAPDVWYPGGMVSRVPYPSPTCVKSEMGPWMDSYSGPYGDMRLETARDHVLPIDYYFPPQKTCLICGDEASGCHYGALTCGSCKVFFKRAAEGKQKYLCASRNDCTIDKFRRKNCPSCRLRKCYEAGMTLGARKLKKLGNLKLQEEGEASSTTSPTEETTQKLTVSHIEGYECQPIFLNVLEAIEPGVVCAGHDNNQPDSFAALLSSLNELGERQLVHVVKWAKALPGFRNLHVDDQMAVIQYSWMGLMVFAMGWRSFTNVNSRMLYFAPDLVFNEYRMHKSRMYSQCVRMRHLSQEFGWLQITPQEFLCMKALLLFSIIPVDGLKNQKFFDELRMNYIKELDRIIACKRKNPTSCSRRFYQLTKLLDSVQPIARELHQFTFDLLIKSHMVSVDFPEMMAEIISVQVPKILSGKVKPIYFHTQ
smiles,measurement,setting,value
c1ccc2cc3c(ccc4ccccc43)cc2c1,Potency,[1],"inconclusive: 68.6 µM [cytotoxic, single point]"
same,"activity change, negative = cytotoxic",[2]; [11],inconclusive: 41.7% [at 95 µM]
same,"activity change, negative = cytotoxic",[2]; at 70.3 µM (top of the series),inactive: 1.17%
O=c1cc(-c2ccccc2)oc2ccc3ccccc3c12,Potency,[3],"inconclusive: 1.95 µM [rising, full curve, poor fit]"
same,activity change,[4],inconclusive: -1.94% [phenotype inactive]
CCCCCCc1ccc(O)cc1O,Potency,[3],active: 43.8 µM and active: 43.6 µM
same,Potency,[4],"inconclusive: 33.5 µM [activator, partial curve, poor fit]"
same,Potency,[5],"inactive and inconclusive: 61.3 µM [inhibitor, single point]"
CC(C=O)Cc1ccc(C(C)(C)C)cc1 (stereo not drawn),Potency,[6],"inconclusive: 68.6 µM [cytotoxic, partial curve, poor fit]"
same,Potency,[7],"inconclusive: 68.6 µM [cytotoxic, single point]"
same,Potency,[1],"inconclusive: 68.6 µM [cytotoxic, single point]"
same,"activity change, negative = inhibition",[3],inconclusive: -24.5%
same,Potency,[2]; [11],"inconclusive: 61.1 µM [cytotoxic, partial curve, poor fit] and inconclusive: 48.6 µM [cytotoxic, partial curve]"
C=C(C)C(=O)OCCOc1ccccc1,Potency,[6],"inconclusive: 68.6 µM [cytotoxic, single point]"
same,Potency,[7],"inconclusive: 68.6 µM [cytotoxic, single point]"
same,Potency,[1],"inconclusive: 68.6 µM [cytotoxic, single point]"
same,"activity change, negative = inhibition",[3],inconclusive: -30.5%
Nc1ccc(O)c([N+](=O)[O-])c1,Potency,[6],"inconclusive: 24.3 µM [rising, partial curve]"
same,Potency,[7],inconclusive: 7.23 µM [cytotoxic]
same,Potency,[1],active: 65.6 µM
same,Potency,[8],inconclusive: 68.6 µM [cytotoxic]
OCCOCCN1CCN(C(c2ccccc2)c2ccc(Cl)cc2)CC1 (stereo not drawn),Potency,[6],"inconclusive: 13.3 µM [cytotoxic, full curve, poor fit]"
same,Potency,[7],"inconclusive: 26.6 µM [cytotoxic, partial curve, poor fit]"
same,Potency,[1],"inconclusive: 26.6 µM [cytotoxic, partial curve, poor fit] and active: 30.2 µM"
same,Potency,[2]; [11],"inconclusive: 18.8 µM [cytotoxic, partial curve, poor fit]"
Oc1ccc(Sc2ccc(O)cc2)cc1,Potency,[6],"inconclusive: 16.1 µM [rising, partial curve]"
same,Potency,[7],"inconclusive: 64.2 µM [cytotoxic, single point]"
same,Potency,[1],"inconclusive: 64.2 µM [cytotoxic, single point]"
same,Potency,[2]; [11],"inconclusive: 45.4 µM [cytotoxic, partial curve]"
CCCCC(CC)COC(=O)c1ccccc1C(=O)O (stereo not drawn),Potency,[6],inconclusive: 44 µM [partial curve]
same,Potency,[7],inconclusive: 67.2 µM
same,Potency,[1],inconclusive: 64.6 µM [cytotoxic]
same,Potency,[8],"inconclusive: 27.8 µM [rising, partial curve, poor fit]"
same,Potency,[2]; [11],inactive
C[n+]1c2cc(N)ccc2cc2ccc(N)cc21 (tested in a mixture with another compound),Potency,[6],active: 5.96 µM
same,Potency,[7],active: 1.68 µM
same,Potency,[9],inconclusive: 15.1 µM [cytotoxic]
same,Potency,[3],"inconclusive: 16.9 µM [rising, partial curve]"
same,Potency,[10],"inconclusive: 23.9 µM [fluorescent, partial curve]"
same,Potency,[8],"inconclusive: 24.8 µM [rising, partial curve]"
same,Potency,[5],"inconclusive: 3.35 µM [inhibitor, full curve]"
same,Potency,[2]; [11],"inconclusive: 26.6 µM [rising, partial curve]"
CCSCC,Potency,[6],inactive
same,Potency,[7],"inconclusive: 72.5 µM [cytotoxic, single point]"
same,Potency,[9],"inconclusive: 58.1 µM [cytotoxic, single point]"
CCCCC/C=C\C=C\C(=O)OCC,Potency,[6],active: 12.7 µM
same,Potency,[7],active: 16 µM
same,Potency,[9],inconclusive: 57.2 µM [cytotoxic]
same,Potency,[8],"inconclusive: 71.5 µM [cytotoxic, single point]"
O=C(Nc1ccc(S(=O)(=O)N2CCOCC2)cc1)c1cc(Cl)ccc1NS(=O)(=O)c1ccc(Cl)s1,Potency,[6],"inconclusive: 33.5 µM [cytotoxic, single point]"
same,Potency,[7],"inconclusive: 33.5 µM [cytotoxic, single point]"
same,Potency,[1],"inconclusive: 33.5 µM [cytotoxic, single point]"
same,Potency,[2]; [11],inconclusive: 26.6 µM [cytotoxic]
